Results taken from paper PMC9911399, “Two distinct binding modes provide the RNA-binding protein RbFox with extraordinary sequence specificity”.
Changes are numbered by the printed parent chain; changes in the protein carry UniProt numbers. The list shows a part of the results.

T1: RBFOX1 RRM (Homo sapiens, UniProt Q9NWB1 109-208)
T1 sequence: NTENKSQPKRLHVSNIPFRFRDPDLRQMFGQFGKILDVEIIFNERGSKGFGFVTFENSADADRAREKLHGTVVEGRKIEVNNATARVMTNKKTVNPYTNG

B1: UUUAGAG (DNA:RNA)
RNA: GGGAGACCGGAAUUCAGAUUGUCCUUUAGAGUUAAAUCCCGUCGUAGCCACCA
DNA 1: CAATCTGAATTCCGGTCTCCC
DNA 2: TGGTGGCTACGACGGGATT
B2: AGGUUGG (DNA:RNA)
RNA: B1 RNA with U25A, U26G, U27G, A28U, G29U, A30G
DNA 1: CAATCTGAATTCCGGTCTCCC
DNA 2: TGGTGGCTACGACGGGATT
B3: ACUAAAC (DNA:RNA)
RNA: B1 RNA with U25A, U26C, G29A, G31C
DNA 1: CAATCTGAATTCCGGTCTCCC
DNA 2: TGGTGGCTACGACGGGATT
B4: GGCUACC (DNA:RNA)
RNA: GGGAGACCGGAAUUCAGAUUGUCCGGCUACCUUAAAUCCCGUCGUAGCCACCA
DNA 1: CAATCTGAATTCCGGTCTCCC
DNA 2: TGGTGGCTACGACGGGATT
B5: AGCCUCC (DNA:RNA)
RNA: B4 RNA with G25A, U28C, A29U
DNA 1: CAATCTGAATTCCGGTCTCCC
DNA 2: TGGTGGCTACGACGGGATT
B6: GGGAUGC (DNA:RNA)
RNA: B4 RNA with C27G, U28A, A29U, C30G
DNA 1: CAATCTGAATTCCGGTCTCCC
DNA 2: TGGTGGCTACGACGGGATT
B7: AGAAGUC (DNA:RNA)
RNA: B4 RNA with G25A, C27A, U28A, A29G, C30U
DNA 1: CAATCTGAATTCCGGTCTCCC
DNA 2: TGGTGGCTACGACGGGATT
B8: UUUUUUA (DNA:RNA)
RNA: B1 RNA with A28U, G29U, A30U, G31A
DNA 1: CAATCTGAATTCCGGTCTCCC
DNA 2: TGGTGGCTACGACGGGATT
B9: GGAUCUA (DNA:RNA)
RNA: B4 RNA with C27A, A29C, C30U, C31A
DNA 1: CAATCTGAATTCCGGTCTCCC
DNA 2: TGGTGGCTACGACGGGATT
B10: GCGUCAG (DNA:RNA)
RNA: B4 RNA with G26C, C27G, A29C, C30A, C31G
DNA 1: CAATCTGAATTCCGGTCTCCC
DNA 2: TGGTGGCTACGACGGGATT
B11: UGAAGGA (DNA:RNA)
RNA: B1 RNA with U26G, U27A, A30G, G31A
DNA 1: CAATCTGAATTCCGGTCTCCC
DNA 2: TGGTGGCTACGACGGGATT
B12: CCUACUA (DNA:RNA)
RNA: B1 RNA with U25C, U26C, G29C, A30U, G31A
DNA 1: CAATCTGAATTCCGGTCTCCC
DNA 2: TGGTGGCTACGACGGGATT
B13: CGAACUC (DNA:RNA)
RNA: B4 RNA with G25C, C27A, U28A, A29C, C30U
DNA 1: CAATCTGAATTCCGGTCTCCC
DNA 2: TGGTGGCTACGACGGGATT
B14: UACGUAU (DNA:RNA)
RNA: B1 RNA with U26A, U27C, A28G, G29U, G31U
DNA 1: CAATCTGAATTCCGGTCTCCC
DNA 2: TGGTGGCTACGACGGGATT
B15: GAUUCAU (DNA:RNA)
RNA: B4 RNA with G26A, C27U, A29C, C30A, C31U
DNA 1: CAATCTGAATTCCGGTCTCCC
DNA 2: TGGTGGCTACGACGGGATT
B16: UUCUAAU (DNA:RNA)
RNA: B4 RNA with G25U, G26U, C30A, C31U
DNA 1: CAATCTGAATTCCGGTCTCCC
DNA 2: TGGTGGCTACGACGGGATT
B17: CGAUAGA (DNA:RNA)
RNA: B4 RNA with G25C, C27A, C30G, C31A
DNA 1: CAATCTGAATTCCGGTCTCCC
DNA 2: TGGTGGCTACGACGGGATT
B18: UUGAGCA (DNA:RNA)
RNA: B1 RNA with U27G, A30C, G31A
DNA 1: CAATCTGAATTCCGGTCTCCC
DNA 2: TGGTGGCTACGACGGGATT
B19: CACCGCC (DNA:RNA)
RNA: B4 RNA with G25C, G26A, U28C, A29G
DNA 1: CAATCTGAATTCCGGTCTCCC
DNA 2: TGGTGGCTACGACGGGATT
B20: AUUCUAG (DNA:RNA)
RNA: B1 RNA with U25A, A28C, G29U
DNA 1: CAATCTGAATTCCGGTCTCCC
DNA 2: TGGTGGCTACGACGGGATT
B21: CCCUGGA (DNA:RNA)
RNA: B4 RNA with G25C, G26C, A29G, C30G, C31A
DNA 1: CAATCTGAATTCCGGTCTCCC
DNA 2: TGGTGGCTACGACGGGATT
B22: AGAGACC (DNA:RNA)
RNA: B4 RNA with G25A, C27A, U28G
DNA 1: CAATCTGAATTCCGGTCTCCC
DNA 2: TGGTGGCTACGACGGGATT
B23: GAGUUGG (DNA:RNA)
RNA: B4 RNA with G26A, C27G, A29U, C30G, C31G
DNA 1: CAATCTGAATTCCGGTCTCCC
DNA 2: TGGTGGCTACGACGGGATT
B24: UAAUCGC (DNA:RNA)
RNA: B4 RNA with G25U, G26A, C27A, A29C, C30G
DNA 1: CAATCTGAATTCCGGTCTCCC
DNA 2: TGGTGGCTACGACGGGATT
B25: GCUCAUU (DNA:RNA)
RNA: B4 RNA with G26C, C27U, U28C, C30U, C31U
DNA 1: CAATCTGAATTCCGGTCTCCC
DNA 2: TGGTGGCTACGACGGGATT
B26: ACCUUAA (DNA:RNA)
RNA: B4 RNA with G25A, G26C, A29U, C30A, C31A
DNA 1: CAATCTGAATTCCGGTCTCCC
DNA 2: TGGTGGCTACGACGGGATT
B27: CGCAACC (DNA:RNA)
RNA: B4 RNA with G25C, U28A
DNA 1: CAATCTGAATTCCGGTCTCCC
DNA 2: TGGTGGCTACGACGGGATT
B28: CGUACCC (DNA:RNA)
RNA: B4 RNA with G25C, C27U, U28A, A29C
DNA 1: CAATCTGAATTCCGGTCTCCC
DNA 2: TGGTGGCTACGACGGGATT
B29: ACUGAUA (DNA:RNA)
RNA: B4 RNA with G25A, G26C, C27U, U28G, C30U, C31A
DNA 1: CAATCTGAATTCCGGTCTCCC
DNA 2: TGGTGGCTACGACGGGATT
B30: CCGCAGA (DNA:RNA)
RNA: B4 RNA with G25C, G26C, C27G, U28C, C30G, C31A
DNA 1: CAATCTGAATTCCGGTCTCCC
DNA 2: TGGTGGCTACGACGGGATT
B31: UCGAAGG (DNA:RNA)
RNA: B1 RNA with U26C, U27G, G29A, A30G
DNA 1: CAATCTGAATTCCGGTCTCCC
DNA 2: TGGTGGCTACGACGGGATT

target: T1, RBFOX1 RRM; experiment: EMSA; HiTS-Eq, 1 nM pool, 10 min; buffer printed only for the single-RNA assays: 10 mM Tris pH 7.5, 150 mM NaCl, 3.4 mM EDTA, 0.001% NP-40, 30 C; conditions: tags: His6 N-terminal (pET28a); label: 5' 32P
Summary of the method: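 Purified RbFox RRM, wild type or mutant, was incubated for 10 min in 50 µL with 1 nM of a 5′-radiolabelled RNA pool carrying 7 randomized nucleotides, whose flanks were annealed to DNA oligonucleotides, over a series of increasing protein concentrations. Unbound RNA was resolved on 8% native PAGE, cut out, reverse-transcribed, barcoded by PCR and sequenced on an Illumina HiSeq 2500. Relative association constants were derived from changes in read counts for each RNA species versus the control reaction and normalised to the cognate motif.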

Binder | binding signal
B1 | 0.0156 KA relative to UGCAUGU
B2 | 0.0166 KA relative to UGCAUGU
B3 | 0.00318 KA relative to UGCAUGU
B4 | 0.0071 KA relative to UGCAUGU
B5 | 0.00234 KA relative to UGCAUGU
B6 | 0.0515 KA relative to UGCAUGU
B7 | 0.0059 KA relative to UGCAUGU
B8 | 0.0102 KA relative to UGCAUGU
B9 | 0.0142 KA relative to UGCAUGU
B10 | 0.0114 KA relative to UGCAUGU
B11 | 0.00721 KA relative to UGCAUGU
B12 | 0.00129 KA relative to UGCAUGU
B13 | 0.00851 KA relative to UGCAUGU
B14 | 0.00835 KA relative to UGCAUGU
B15 | 0.00493 KA relative to UGCAUGU
B16 | 0.00144 KA relative to UGCAUGU

Binder | binding signal
B17 | 0.0128 KA relative to UGCAUGU
B18 | 0.0174 KA relative to UGCAUGU
B19 | 0.00333 KA relative to UGCAUGU
B20 | 0.00599 KA relative to UGCAUGU
B21 | 0.013 KA relative to UGCAUGU
B22 | 0.00486 KA relative to UGCAUGU
B23 | 0.0176 KA relative to UGCAUGU
B24 | 0.0114 KA relative to UGCAUGU
B25 | 0.0092 KA relative to UGCAUGU
B26 | 0.00107 KA relative to UGCAUGU
B27 | 0.0129 KA relative to UGCAUGU
B28 | 0.00424 KA relative to UGCAUGU
B29 | 0.00715 KA relative to UGCAUGU
B30 | 0.0122 KA relative to UGCAUGU
B31 | 0.0124 KA relative to UGCAUGU
